# Laboratory results: article PMC4336329 (PLoS ONE, 2015)
# The campaign covered roughly 310,000 compounds. About 14,000 (4.5%) showed an effect of 50% or more. Effects have a minus sign here. Some of the results follow.
# Target: human ether-à-go-go-related gene (hERG) potassium channel (human, UniProt Q12809)
# Assay: primary screen, population patch clamp on CHO cells stably expressing hERG
# 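Also: peak tail current of the secondary pulse compared with the same well before compound.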
# Sequence of human ether-à-go-go-related gene (hERG) potassium channel (Q12809 whole entry, looked up): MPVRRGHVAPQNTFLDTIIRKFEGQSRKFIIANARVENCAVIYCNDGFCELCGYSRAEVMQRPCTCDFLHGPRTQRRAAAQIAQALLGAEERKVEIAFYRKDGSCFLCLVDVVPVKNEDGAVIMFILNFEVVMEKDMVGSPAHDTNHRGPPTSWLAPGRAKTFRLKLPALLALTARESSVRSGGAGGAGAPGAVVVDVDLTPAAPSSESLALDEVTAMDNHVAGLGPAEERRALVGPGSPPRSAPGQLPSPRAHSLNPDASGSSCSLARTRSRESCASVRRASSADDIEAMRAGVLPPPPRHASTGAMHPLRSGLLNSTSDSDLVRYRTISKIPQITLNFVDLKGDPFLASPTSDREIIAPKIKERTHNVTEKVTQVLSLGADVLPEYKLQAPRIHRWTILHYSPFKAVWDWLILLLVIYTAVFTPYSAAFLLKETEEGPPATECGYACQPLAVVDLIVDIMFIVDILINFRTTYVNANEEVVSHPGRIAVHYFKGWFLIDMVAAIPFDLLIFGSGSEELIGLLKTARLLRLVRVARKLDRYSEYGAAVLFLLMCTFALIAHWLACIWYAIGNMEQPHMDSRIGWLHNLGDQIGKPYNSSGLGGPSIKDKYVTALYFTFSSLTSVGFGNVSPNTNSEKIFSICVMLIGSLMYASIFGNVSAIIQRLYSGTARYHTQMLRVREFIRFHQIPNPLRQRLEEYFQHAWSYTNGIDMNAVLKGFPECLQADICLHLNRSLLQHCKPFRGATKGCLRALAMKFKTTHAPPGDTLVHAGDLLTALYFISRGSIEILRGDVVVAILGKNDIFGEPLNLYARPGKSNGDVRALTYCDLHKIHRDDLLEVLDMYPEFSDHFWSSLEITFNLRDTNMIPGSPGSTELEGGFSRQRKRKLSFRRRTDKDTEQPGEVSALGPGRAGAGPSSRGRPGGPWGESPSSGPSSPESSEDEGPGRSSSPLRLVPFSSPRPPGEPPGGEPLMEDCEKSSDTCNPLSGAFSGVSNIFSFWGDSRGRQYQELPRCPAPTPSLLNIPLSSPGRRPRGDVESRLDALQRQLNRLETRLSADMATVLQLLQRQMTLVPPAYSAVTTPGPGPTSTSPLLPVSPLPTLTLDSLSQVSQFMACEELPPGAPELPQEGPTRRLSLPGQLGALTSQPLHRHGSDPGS
row,Compound,"hERG current change (%, negative = inhibition) at 10uM"
1,Cc1ccc2c(c1)CCCN2S(=O)(=O)c1cccc(C(=O)Nc2ccccc2C(=O)O)c1,-14.7%
2,O=C(NCc1ccc(F)cc1)C1CCN(c2cnccn2)CC1,-64.9%
3,Cn1cccc1/C=N/NC(=O)C12CC3CC(CC(C3)C1)C2,4.99%
4,COc1cc2c(cc1OC)CC[N+](C)=C2.[I-],15.4%
5,CCOC(=O)N1CCc2c(sc(NC(=O)C3=COCCO3)c2C(N)=O)C1,4.44%
6,CN(CCN1CCOCC1)Cc1nc(-c2cccs2)no1,3.49%
7,CCCNC(=O)Cc1c(O)c2ccccc2[nH]c1=O,19%
8,O=C(CSc1nc2ccccc2s1)N1N=C(c2cccs2)CC1c1ccc(F)cc1 (stereo not drawn),0.782%
9,O=C(NCc1ccc2c(c1)OCO2)c1ccc(CS(=O)Cc2ccc(Cl)cc2)o1 (stereo not drawn),-28.8%
10,Cc1ccc2nc(NC(=S)NC(=O)c3cccs3)sc2c1,7.89%
11,CN(C)c1ccc(P(=O)(OC2CCCCC2)C(O)c2cccnc2)cc1 (stereo not drawn),-4.2%
12,CCCCn1c(SCC(=O)Nc2ccc(C)c(S(=O)(=O)N3CCOCC3)c2)nnc1C(CC)N(C)C (stereo not drawn),-14.9%
13,CCc1ccc(OCc2cnc(Cl)s2)cc1,15.4%
14,O=c1[nH][nH]c(C(F)(F)F)c1C=NCc1cccs1,14.7%
15,Cc1ccc(-c2cc(C(=O)N3CCN(c4ccccc4O)CC3)c3ccccc3n2)cc1,-1.9%
16,CCOC(=O)N1CCN(C(=O)C2CCC(=O)N(Cc3cccc(C(F)(F)F)c3)C2)CC1 (stereo not drawn),-11.1%
17,CCOC(=O)Cn1c(Br)nc2c1c(=O)[nH]c(=O)n2C,-58%
18,O=C(CCN1C(=O)C2C3CCC(C3)C2C1=O)Nc1ccccc1Cl (stereo not drawn),-9.72%
19,CCOCCCNC(=O)C(NC(=O)C1CCC(=O)N1)c1ccc(C)cc1 (stereo not drawn),1.88%
20,COc1ccc(C2C(C#N)=C(N)N(c3sc4c(c3C#N)CCCC4)C3=C2C(=O)CC(C)(C)C3)cc1OC (stereo not drawn),10.3%
21,COc1ccc(C2c3c(ncn(CCN4CCOCC4)c3=N)Oc3ccc4ccccc4c32)cc1 (stereo not drawn),-47.2%
22,CC(=O)c1cccc(NC(=O)CSC(=O)c2ccccc2)c1,12.4%

row,Compound,"hERG current change (%, negative = inhibition) at 10uM"
1,CCOC(=O)c1c(NC(=O)CN2C(=O)NC3(CCC(C)CC3)C2=O)sc(C)c1CC (stereo not drawn),4.52%
2,O=C(NC(NC(=S)Nc1ccccc1C(=O)O)C(Cl)(Cl)Cl)c1ccccc1 (stereo not drawn),9.78%
3,COc1cc(/C=C(\NC(=O)c2ccccc2)C(=O)N2CC3CC(C2)c2cccc(=O)n2C3)cc(OC)c1OC (stereo not drawn),14.8%
4,CN(C)c1ccc(N=Nc2ccccc2C(=O)OCC(=O)N2CCCCCC2)cc1,0.421%
5,O=C(Nc1ccc(Br)cn1)C1CCCN1S(=O)(=O)c1ccccc1 (stereo not drawn),-42%
6,CN(C/C=C/c1ccccc1)Cc1cccc2ccccc12.Cl,-43.2%
7,Cc1ccc(N2CC(C(=O)N/N=C/c3c(F)cccc3Cl)CC2=O)cc1 (stereo not drawn),-13.7%
8,COc1ccc(-n2c(SCC(=O)O)nc3sc4c(c3c2=O)CCCC4)cc1,20.3%
9,O=S(=O)(NCCC1=CCCCC1)c1c(Cl)cccc1Cl,1.38%
10,O=C(NCc1nnc2c3ccccc3c(-c3ccccc3)nn12)c1ccc(Cl)cc1,-52.4%
11,Cc1nn(CC(=O)Nc2ccc3c(c2)nc(CN2CCCC2)n3C)c(=O)c2ccccc12,-13.4%
12,CC(=O)Nc1ccc(S(=O)(=O)NC(CC(=O)N2CCC3(CC2)OCCO3)C(C)C)cc1 (stereo not drawn),18.9%
13,Fc1ccccc1N1CCN(C2CCCN(Cc3ccccc3C(F)(F)F)C2)CC1 (stereo not drawn),-5.91%
14,Cc1cc(NC(=O)Nc2cccc3ccccc23)no1,4.13%
15,CCOC(=O)C1=C(c2cccc(Oc3ccccc3)c2)NC(=S)NC1C (stereo not drawn),-15.8%
16,CC(=O)Nc1ccccc1C(=O)C(=O)Nc1ccc(F)cc1,-0.577%
17,O=C(Nn1cnnc1)c1cc2cc(Br)ccc2oc1=O,-5.57%
18,COc1ccc(CCNC(=O)CSC2=NS(=O)(=O)c3ccccc3N2)cc1OC,-6.03%
19,Cc1ccc(C(=O)C2CCN(S(=O)(=O)c3ccc(C(=O)O)cc3)CC2)cc1,7.93%
20,O=C(Oc1cccc2ccccc12)c1ccncc1,-1.26%
21,O=C(NCc1ccco1)c1csc(Nc2ccccc2Cl)n1,-63.1%
22,NC(=O)c1ccc(N2CCN(c3ccc(O)cc3)CC2)c([N+](=O)[O-])c1,-33.4%

row,Compound,"hERG current change (%, negative = inhibition) at 10uM"
1,C/C(=N\NC(=O)CSc1nc2ccccc2c(=O)n1-c1ccccc1C)c1cccs1,6.94%
2,CC(=O)N1N=C(c2ccccc2O)OC1(C)CC(=O)Nc1ccccc1 (stereo not drawn),-3.99%
3,CCc1ccc(/C=C2/SC(=S)N(CCC(=O)Nc3cccnc3)C2=O)cc1,7.33%
4,COc1cc(NC(=O)COc2ccc(-n3ccnc3)cc2)cc(OC)c1,-51.3%
5,CCOC(=O)C(=CNc1cc(C(F)(F)F)ccc1N1CCOCC1)C(=O)OCC,-13.2%
6,COc1cc(C(=O)N/N=C(\c2ccccc2)c2ccccn2)cc(OC)c1OC,-1.77%
7,CC(Oc1ccccc1)C(=O)Nc1cc(Cl)ccc1-n1cncn1 (stereo not drawn),-6.26%
8,CC(C)C1=CC(=Nc2ccc(S(N)(=O)=O)cc2)C=C(C(C)C)C1=O.O,-16%
9,COc1ccccc1C(CC(=O)O)c1ccc2c(c1)OCO2 (stereo not drawn),8.32%
10,Cc1ccc(C(=O)n2nnc3ccccc32)cc1,7.37%
11,Cn1c(CNc2nc(-c3ccccc3)cs2)nnc1SCC(=O)N1CCc2ccccc21,0.0993%
12,COc1cccc(C(c2sc3nc(C)nn3c2O)N2CCc3ccccc3C2)c1 (stereo not drawn),-25%
13,CN1CCN(Cc2nc(Cc3cccc(F)c3)no2)CC1c1ccccc1 (stereo not drawn),-18.2%
14,COc1ccc(/C=C2/C(=O)N=C3SCCN32)cc1,-19.7%
15,Cc1ccc(C2C3=C(CCCC3=O)Nc3nc(SCC(=O)NCc4ccco4)[nH]c(=O)c32)cc1 (stereo not drawn),-12.4%
16,Cc1ccc(OCC(=O)Nc2cc(C(C)(C)C)on2)cc1C,6.23%
17,CN(Cc1ccccc1)S(=O)(=O)c1ccc(NS(=O)(=O)Cc2ccccc2)cc1,0.139%
18,COc1ccc(-c2csc(NC(C)c3nc4cc(Cl)c(N5CCCCC5)cc4n3CCOCCO)n2)cc1 (stereo not drawn),12.9%
19,CCOC(=O)c1sc2nc(C(C)C)c3c(c2c1N)CC(C)(C)OC3,5.05%
20,OC(CNCC1CCCO1)COc1ccc(OCC(O)CNCC2CCCO2)cc1 (stereo not drawn),8.24%
21,CC(Oc1ccc(Cl)cc1Cl)C(=O)Nc1ccc(O)cc1 (stereo not drawn),-46.7%
22,COc1cccc(N2CCN(C(=O)CCS(=O)(=O)c3ccc4c(c3)oc(=O)n4C)CC2)c1,-3.62%

row,Compound,"hERG current change (%, negative = inhibition) at 10uM"
1,O=C(NNC(=O)C1CC1)c1ccc(-c2ccccc2)cc1,-0.895%
2,Cn1c(=O)c2c(nc(CO)n2C)n(C)c1=O,25.2%
3,Cc1cc(Br)ccc1NC(=O)c1sc2ncnc(N3CCN(c4ccccn4)CC3)c2c1C,-28%
4,O=c1c2c(ncn1CCO)nc1n2CCC1,9.55%
5,c1ccc2c(-n3cccn3)cccc2c1,-4.01%
6,c1ccc(-c2noc(CSc3nc4ccccc4o3)n2)cc1,0.774%
7,O=C(NNC(=O)C1CCN(S(=O)(=O)c2ccc(Cl)cc2)CC1)c1ccc(S(=O)(=O)N2CCCCC2)cc1,0.37%
8,C=CCc1c(C)nc2cc(-c3ccccc3)[nH]n2c1=O,5.05%
9,COc1cccc(OCC(=O)NNC(=O)c2cnccn2)c1,17.2%
10,CC(=O)c1ccc(OCc2cc(C(=O)N3CCN(C4CCCC4)C(=O)C3)no2)cc1,1.94%
11,Cc1ccc(Cn2c(C)c3cnn(CC(=O)NCc4ccccn4)c(=O)c3c2C)cc1,-26.5%
12,NC(=O)C(=O)NN=C1C2CC3CC(C2)CC1C3,12.8%
13,COc1cccc(C(=O)Nc2ccc(NC(=O)C3CCCCC3C(=O)O)cc2)c1 (stereo not drawn),9.47%
14,COc1ccc(CNS(=O)(=O)NCc2ccc(OC)c(OC)c2)cc1OC,-1.36%
15,CCc1ccc(NCc2ccc(OC)c(Cn3ccnc3)c2)cc1,-10.5%
16,COc1ccccc1Nc1ncnc2c1cnn2-c1cccc(C)c1,6.1%
17,COc1cc(Cl)ccc1OCc1cc(C(=O)NCC(C)c2ccccc2)no1 (stereo not drawn),5.93%
18,Cc1ccc(C)c(S(=O)(=O)N2CCN(C(=O)Cn3cnc4c3c(=O)n(C)c(=O)n4C)CC2)c1,-23.5%
19,NC(=O)CN1CCN(c2nc(-c3ccc(F)cc3)cs2)CC1,-19.9%
20,O=[N+]([O-])c1cc([As](=O)(O)O)ccc1O,19.8%
21,CCOc1ccc(NC(=O)CC2C(=O)N(c3ccccc3)C(=O)N2Cc2ccccn2)cc1 (stereo not drawn),-27.5%
